Experimental data as given in publication PMC6919601, “Identification of Plasmodium dipeptidyl aminopeptidase allosteric inhibitors by high throughput screening” (PLoS ONE, 2019).
In all, about 110,000 compounds went through this assay and about 230 (0.21%) showed an effect of 50% or more. This is one part of the list.

target: DPAP1 (Plasmodium falciparum, UniProt Q8IIJ9); experiment: primary screen, percent inhibition; read by cleavage of a fluorogenic dipeptide substrate; higher = more effect of the substance; parameters: species or system P. falciparum D10 trophozoite lysates; single well
Sequence (Q8IIJ9 whole entry, looked up): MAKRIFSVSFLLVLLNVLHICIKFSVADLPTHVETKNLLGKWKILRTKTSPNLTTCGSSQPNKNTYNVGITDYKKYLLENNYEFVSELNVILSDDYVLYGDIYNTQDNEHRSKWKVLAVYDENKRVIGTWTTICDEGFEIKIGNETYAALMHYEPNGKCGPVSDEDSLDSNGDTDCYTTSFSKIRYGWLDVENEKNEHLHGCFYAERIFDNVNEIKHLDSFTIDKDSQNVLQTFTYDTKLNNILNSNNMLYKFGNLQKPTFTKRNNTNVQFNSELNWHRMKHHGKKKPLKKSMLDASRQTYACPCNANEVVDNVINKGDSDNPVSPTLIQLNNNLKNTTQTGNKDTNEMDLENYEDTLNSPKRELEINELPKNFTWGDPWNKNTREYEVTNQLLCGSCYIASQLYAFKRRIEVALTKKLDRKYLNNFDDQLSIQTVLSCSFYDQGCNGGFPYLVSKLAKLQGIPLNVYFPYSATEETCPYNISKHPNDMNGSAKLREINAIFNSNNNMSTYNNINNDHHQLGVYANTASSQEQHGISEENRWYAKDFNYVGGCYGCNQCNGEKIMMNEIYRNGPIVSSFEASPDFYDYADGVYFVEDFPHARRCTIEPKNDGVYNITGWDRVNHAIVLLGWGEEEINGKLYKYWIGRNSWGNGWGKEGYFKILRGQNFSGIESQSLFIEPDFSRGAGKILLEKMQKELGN
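Further: 30 min substrate incubation versus DMSO and 10 µM JCP410 controls.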

In order of falling “% Inhibition @ 10 uM” value:
1. Cc1ccc(S(=O)(=O)c2cc3c(=O)n4ccccc4nc3n(C)c2=N)cc1  57.9%
2. O=C(Nc1nc(-c2ccc(F)cc2)cs1)c1cc2ccccc2oc1=O  25.4%
3. CCCN1CCN(C(=O)c2ccc3c(c2)sc2nc(-c4ccc(F)cc4)cn23)CC1  15.9%
4. O=C(/C=C\c1ccc2c(c1)OCO2)Nc1c2c(nn1-c1ccc(Cl)cc1)CS(=O)(=O)C2  13.1%
5. CCN(C(=O)N1CCOCC1)c1ccccc1C  12.9%
6. CCOC(=O)N1CCN(CC(O)COC2CC(C)CCC2C(C)C)CC1 (stereo not shown)  12.7%
7. COc1ccc(C(=O)Nc2ccc(C)cc2Br)cc1OC  9.29%
8. CCOc1ccccc1CNC(=O)CN1C(=O)CSc2nc(C)cc(C)c21  8.62%
9. CCC(C)NS(=O)(=O)c1csc(C(N)=O)c1 (stereo not shown)  6.59%
10. Cc1ccc(Sc2ccc(C=O)o2)cc1  6.42%
11. COc1cc(-c2nnc3sc(-c4ccco4)nn23)cc(OC)c1OC  6.01%
12. COc1cc(C2SCC(=O)N2CCc2ccccc2)cc(OC)c1OC (stereo not shown)  5.98%
13. Cc1cc(C)c2c(n1)nn1c(C)c(CCC(=O)O)c(C)nc21  5.53%
14. CCN(CC)CCCOc1c(C)cc(Cl)cc1Cl  5.31%
15. Cn1c(=O)c2c(nc(N3CCOCC3)n2Cc2cccc(C(F)(F)F)c2)n(C)c1=O  5.17%
16. Cc1cccc(C(=O)Nc2sc3c(c2C(=O)N2CCCC2)CCCC3)c1  5.03%
17. CCOC(=O)c1sc(N2C(=O)c3oc4ccccc4c(=O)c3C2c2ccccc2)nc1C (stereo not shown)  4.99%
18. Cc1nn(CC(=O)NCCCN2CCc3ccccc3C2)c(=O)c2cc3sccc3n12  4.95%
19. Cc1ccc(-n2c(S)nnc2-c2ccccc2O)c(C)c1  4.94%
20. O=C(Nc1sc2c(c1C(=O)NCC1CCCO1)CCCC2)c1ccccc1Br (stereo not shown)  4.57%
21. C=CCOc1ccc2c(=O)c(-c3ccc(OC)c(OC)c3)c(C(F)(F)F)oc2c1  3.86%
22. CC1(C)CC(=O)c2cnc(NC(=O)C3CC3)nc2C1  3.48%
23. COc1cc2nc3c(O)n(CCN4CCC(Cc5ccccc5)CC4)cnc-3c2cc1OC  3.24%
24. CCc1nnc(NC(=O)C2CCN(c3cc(C)nc4c(-c5ccc(Cl)cc5)c(C)nn34)CC2)s1  3.19%
25. N#Cc1c(N)n(-c2ccc(Br)cc2)c2nc3ccccc3nc12  3.16%
26. O=C(c1ccccc1)c1nc2ccccc2[nH]1  2.97%
27. O=C(COc1cccc(N2C(=O)c3ccccc3C2=O)c1)c1ccccc1  2.63%
28. CC1=C(C(=O)Nc2ncccc2C)C(c2ccc(F)cc2)C2=C(O)CC(C)(C)CC2=N1 (stereo not shown)  2.38%
29. COc1ccc(C2C=C(c3ccccc3)OC3=C2C(=O)CCC3)cc1 (stereo not shown)  2.22%
30. Cc1ccc(-c2coc3c(C)c4oc(=O)c(CC(=O)O)c(C)c4cc23)cc1  2.21%
31. O=C(Nc1cc(Cl)cc(Cl)c1)c1cccc(C(=O)Nc2cc(Cl)cc(Cl)c2)c1  1.9%
32. CCOc1nc(-c2ccccc2)ccc1-c1noc(-c2ccncc2)n1  1.89%
33. Cc1noc2ncnc(N3CCCC(C(=O)NCCCOC(C)C)C3)c12 (stereo not shown)  1.84%
34. Cc1cc(C(=O)NC(C)Cc2ccccc2)cc(C)c1N (stereo not shown)  1.57%
35. CC(=O)Nc1c(O)[nH]c2ccc(C)cc12  1.52%
36. Cc1cc(C)n(C(C)CC(=O)NCc2ccco2)n1 (stereo not shown)  1.26%
37. Cc1nc2nc(-c3ccccc3)c(-c3ccccc3)n2nc1C  1.03%
38. CN1C2CCC1CC(OC(=O)CCN1CCCC1)C2 (stereo not shown)  0.986%
39. O=C(NCc1ccco1)c1cc2c(s1)-c1ccc(Cl)cc1S(=O)(=O)C2  0.953%
40. COC(=O)c1ccc(-c2nc(COc3ccc(C(C)(C)C)cc3)no2)cc1  0.758%
41. CC(C)(C)C1CCC(OC(=O)C2CC(=O)OC2c2ccccc2)CC1 (stereo not shown)  0.716%
42. O=C(NCCCc1ccccc1)C1c2ccccc2Oc2ccccc21  0.64%
43. Cc1ccc(S(=O)(=O)c2nc(S(=O)(=O)Cc3ccccc3)sc2N(C)C)cc1  0.627%
44. O=C(O)c1c(CNCc2ccco2)c2ccccc2n1Cc1ccc(F)cc1Cl  0.277%
45. COCC1=Nc2ncnn2C(c2ccc(Cl)cc2Cl)/C1=C(/O)OC (stereo not shown)  0.0842%
46. CCOc1ccccc1C(=O)Nc1ccc(C)cc1C  0.0504%
47. COC(=O)c1cccc(NC(=O)c2ccccc2C(=O)O)c1  0.00784%
48. Cc1ccc(-c2nc(CS(=O)(=O)CC(=O)N(C)CCC#N)c(C)o2)cc1  -0.138%
49. O=C1c2ccccc2C(=O)C1(NCc1ccccc1)c1ccccc1  -0.349%
50. COc1ccccc1-c1nnc2sc(-c3ccccn3)nn12  -0.45%
51. Cc1cc(NC(=O)c2ccc(COc3ccccc3Cl)o2)no1  -0.553%
52. Cc1ccc(C(=O)NCCc2ccccc2)cc1  -0.569%
53. CC1CC(C)(C)NCc2ccccc21 (stereo not shown)  -0.759%
54. O=C(NCCN1CCOCC1)c1ccc(CS(=O)(=O)c2c(Cl)cccc2Cl)o1  -0.971%
55. CCOc1ccc(C2C(C#N)=C(N)N(c3ccc(F)cc3)C3=C2C(=O)CCC3)cc1 (stereo not shown)  -0.988%
56. COc1ccc(-c2cc(C)no2)cc1S(=O)(=O)NCCN1CCc2ccccc2C1  -1.41%
57. CCOC(=O)c1[nH]c2ccc(C(C)=O)cc2c1-c1ccc(N)cc1  -1.45%
58. COc1ccc(C=C2C(=O)OC(C)(C(C)(C)C)OC2=O)c(OC)c1 (stereo not shown)  -1.47%
59. CCN(CC)C(=O)C1CCCN(C2CCN(CCc3ccccc3)CC2)C1 (stereo not shown)  -1.5%
60. Cc1nn(CCCC(=O)NCC2CCCO2)c(=O)c2cc3sccc3n12 (stereo not shown)  -1.58%
61. CC(C)c1ccc(CNc2nc(N)n(-c3ccccc3)n2)cc1  -1.63%
62. Cc1nc(O)c(C#N)c(C)c1CSc1ncccn1  -1.64%
63. COCCN(C(=O)c1nn(C)c2c1CSc1ccccc1-2)C1CCN(C(C)=O)CC1  -1.72%
64. CCCCNC(=O)Cn1nc(-c2ccc(Cl)cc2)ccc1=O  -1.79%
65. COc1ccccc1C1CC(=O)Nc2cc3c(cc21)OCO3 (stereo not shown)  -1.89%
66. COc1cccc(CNc2cnc3ccccc3c2)c1O  -2.14%
67. COc1ccccc1NC(=O)c1c(NCc2ccc(C)o2)sc2c1CCC2  -2.14%
68. O=C(C(Cc1ccc([N+](=O)[O-])cc1)N1C(=O)c2ccccc2C1=O)N1CCOCC1 (stereo not shown)  -2.19%
69. O=C(NCCc1ccc(Cl)cc1)C1CCC(CNS(=O)(=O)c2cccc3nsnc23)CC1 (stereo not shown)  -2.25%
70. COc1ccc(S(=O)(=O)N2CCC(C(N)=O)CC2)c(Cl)c1Cl  -2.28%
71. O=C1c2ccc(F)cc2C(=O)N1c1nc2ccccc2s1  -2.42%
72. COc1cc(C2NC(C(=O)O)CS2)cc(OC)c1OC (stereo not shown)  -2.45%
73. CC(=O)Nc1ccc(NC(=O)c2ccc(Cn3cc(Cl)cn3)cc2)cc1  -2.8%
74. CC(C)c1ccc(OCC(=O)N(Cc2ccco2)Cc2ccccc2F)cc1  -2.84%
75. CSc1ncc(Cl)c(C(=O)N2CCN(Cc3ccccc3)CC2)n1  -2.85%
76. COc1ccccc1CNC(=O)CS(=O)Cc1nc(-c2cccc(C)c2)oc1C (stereo not shown)  -2.85%
77. COc1ccc(CCNC(=O)C(=O)NCc2ccc(Cl)cc2)cc1OC  -3.35%
78. Cc1ccc(-n2c(C)cc(/C=C3\C(=N)N4N=C(S(C)(=O)=O)SC4=NC3=O)c2C)cc1Cl  -3.35%
79. COc1ccc(CCNC(=O)c2cccc3ccccc23)cc1OC  -3.47%
80. Fc1ccc(N2CCN(Cc3cc(F)ccc3F)CC2)cc1  -3.57%
81. Cc1nnc2nc(SCC(=O)NCCC3=CCCCC3)n(-c3ccccc3Cl)c(N)c1-2  -3.93%
82. CCC(=O)Nc1ccc(NC(=O)COc2ccc(C)cc2)cc1C  -3.97%
83. O=C(O)CC12CC3CC(CC(S)(C3)C1)C2  -4.01%
84. CCCNc1nc2ccc(C)cc2n2nnnc12  -4.03%
85. CC(C)(C)Cc1nc2ccccc2n1Cc1ccccc1  -4.07%
86. O=C(CCCN1C(=O)CSc2ncccc21)NCCCc1ccccc1  -4.15%
87. COc1ccc(CNC(=O)CSc2nc3ccc(N)cc3s2)cc1  -4.26%
88. Cc1ccc(CNC(=O)Cc2c(C)c3cc4c(C)coc4c(C)c3oc2=O)cc1  -4.39%
89. CCN(CC)C(=O)CN(c1cccc(OC)c1)S(=O)(=O)c1ccc(C)cc1  -4.62%
90. O=C(Nc1ccc(CN2CCOCC2)cc1)c1cccc2ccccc12  -4.72%
91. COc1ccc(C(=O)N/C(=C\c2ccc3c(c2)OCO3)C(=O)Nc2ccc(C(=O)O)cc2)cc1  -4.76%
92. C/C(=C1/C(=O)N(c2nc3ccccc3s2)N=C1c1ccccc1)N1CCOCC1  -4.76%
93. O=C(NCCN1CCCC1)C1CCN(S(=O)(=O)N2CCC3(CC2)OCCO3)CC1  -4.83%
94. CCOCCCNC(=O)c1ccc2snnc2c1  -5.36%
95. O=c1cccc2n1CC1CC2CN(c2nc(N3CCOCC3)nc(N3CCOCC3)n2)C1 (stereo not shown)  -5.52%
96. CCOc1cccc(C(=O)Nc2nnc(C3CCCCC3)s2)c1  -5.7%
97. COc1ccc(-n2c(Cc3cccn3C)nnc2SCC(=O)NCC2CCCO2)cc1 (stereo not shown)  -5.76%
98. COc1ccc(C2C(=O)N(C3CCCCC3)CC(=O)N2C2CC2)cc1OC (stereo not shown)  -5.8%
99. CN(C(=O)c1ccncc1)C1CC(C)(C)N(O)C(C)(C)C1  -8.85%
100. COc1ccc(C2C(C(=O)c3ccc(C)cc3)=C(O)C(=O)N2c2ccccc2)cc1 (stereo not shown)  -13.4%
